A lower IC50 marks a more sensitive line; where the fit passes the top or lowest dose, that dose stands as a limit. AUC, from the same fit, is the share of area under the viability curve across the 256-fold dose range; values near 1 show little effect. For some of these results: Where the top dose is marked as inferred, it comes from the curve model; the source does not state it.
How the values were obtained:
Assay in all cases: Viability of human cancer cell lines after 72 h of drug (GDSC screen)
BMS-345541 = compound: Cc1ccc2nc(NCCN)c3ncc(C)n3c2c1 [BMS-345541]; conditions: top dose 16 µM
Procedure: (§1)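 Human cancer cell lines in 384-well plates, medium with 10% serum, drug for 72 h over a 256-fold dose range (nine 2-fold or five 4-fold steps up to the top dose). Adherent lines were fixed and stained with the nucleic acid dye Syto60, suspension lines read with resazurin; signal relative to control wells, capped at 0 and 100%. One two-parameter sigmoid per drug and line, fitted in a mixed model over all curves with the slope shared within a line.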

AZD7762 = compound: NC(=O)Nc1cc(-c2cccc(F)c2)sc1C(=O)N[C@H]1CCCNC1 [AZD7762]; conditions: top dose 2 µM
Procedure: as §1

Bexarotene = compound: C=C(c1ccc(C(=O)O)cc1)c1cc2c(cc1C)C(C)(C)CCC2(C)C [Bexarotene]; conditions: top dose 8 µM
Procedure: as §1

Etoposide = compound: COc1cc([C@@H]2c3cc4c(cc3[C@@H](O[C@@H]3O[C@@H]5CO[C@@H](C)O[C@H]5[C@H](O)[C@H]3O)[C@H]3COC(=O)[C@H]23)OCO4)cc(OC)c1O [Etoposide]; conditions: top dose 16 µM
Procedure: as §1

XAV 939 = compound: Oc1nc(-c2ccc(C(F)(F)F)cc2)nc2c1CSCC2 [XAV 939]; conditions: top dose 5 µM; top dose inferred
Procedure: as §1

NPK76-II-72-1 = compound: COc1cc(C(=O)NC2CCN(C)CC2)ccc1Nc1ncc2c(n1)N(C1CCCC1)C(C)CC(=O)N2C [NPK76-II-72-1]; conditions: top dose 10.24 µM; top dose inferred
Procedure: as §1

GSK-650394 = compound: O=C(O)c1ccc(-c2c[nH]c3ncc(-c4ccccc4)cc23)cc1C1CCCC1 [GSK-650394]; conditions: top dose 16 µM; top dose inferred
Procedure: as §1

YK 4-279 = compound: COc1ccc(C(=O)CC2(O)C(=O)Nc3c(Cl)ccc(Cl)c32)cc1 [YK 4-279]; conditions: top dose 10 µM
Procedure: as §1

Row | Cell Line | AUC (BMS-345541) | IC50 (BMS-345541) [µM] | AUC (AZD7762) | IC50 (AZD7762) [µM] | AUC (Bexarotene) | IC50 (Bexarotene) [µM] | AUC (Etoposide) | IC50 (Etoposide) [µM] | AUC (XAV 939) | IC50 (XAV 939) [µM] | AUC (NPK76-II-72-1) | IC50 (NPK76-II-72-1) [µM] | AUC (GSK-650394) | IC50 (GSK-650394) [µM] | AUC (YK 4-279) | IC50 (YK 4-279) [µM]
1 | SNU-387 (liver, adherent) | 0.862 | > 16 | 0.442 | 0.0848 | 0.924 | > 8 | 0.841 | 13.4 | 0.961 | > 5 | 0.838 | 8.34 | 0.943 | > 16 |  | 
2 | SW626 (ovary, adherent) | 0.817 | 11.2 | 0.713 | 0.567 | 0.939 | > 8 | 0.796 | 9.12 | 0.932 | > 5 | 0.923 | > 10.2 | 0.847 | 15.3 |  | 
3 | SW948 (large intestine, adherent) | 0.919 | > 16 | 0.915 | > 2 | 0.981 | > 8 | 0.966 | > 16 | 0.979 | > 5 | 0.938 | > 10.2 | 0.866 | > 16 |  | 
4 | SW954 (urogenital system, adherent) | 0.8 | 7.83 | 0.695 | 0.446 | 0.961 | > 8 | 0.534 | 1.24 | 0.87 | 4.76 | 0.65 | 1.68 | 0.651 | 2.63 |  | 
5 | SW1573 (lung adenocarcinoma, adherent) | 0.932 | > 16 | 0.795 | 1.32 | 0.966 | > 8 | 0.606 | 2.16 | 0.893 | > 5 | 0.972 | > 10.2 | 0.98 | > 16 |  | 
6 | SW1783 (glioma, adherent) | 0.916 | > 16 | 0.815 | 0.964 | 0.981 | > 8 | 0.694 | 3.29 | 0.974 | > 5 | 0.991 | > 10.2 | 0.95 | > 16 |  | 
7 | T84 (large intestine, adherent) | 0.925 | > 16 | 0.989 | > 2 | 0.94 | > 8 | 0.984 | > 16 | 0.981 | > 5 | 0.928 | > 10.2 | 0.651 | 2.63 |  | 
8 | TGBC1TKB (biliary tract, adherent) | 0.965 | > 16 | 0.869 | 1.82 | 0.939 | > 8 | 0.931 | > 16 | 0.979 | > 5 | 0.987 | > 10.2 | 0.969 | > 16 |  | 
9 | TGBC24TKB (biliary tract, adherent) | 0.946 | > 16 |  |  |  |  | 0.967 | > 16 | 0.979 | > 5 | 0.934 | > 10.2 | 0.948 | > 16 | 0.795 | 4.29
10 | TMK-1 (stomach, adherent) | 0.891 | > 16 | 0.825 | 1.29 | 0.942 | > 8 | 0.718 | 4.31 | 0.956 | > 5 | 0.944 | > 10.2 | 0.904 | > 16 |  | 
11 | TOV-112D (ovary, adherent) | 0.687 | 3.35 | 0.725 | 0.547 | 0.902 | > 8 | 0.316 | 0.304 | 0.981 | > 5 | 0.766 | 3.8 | 0.487 | 0.924 |  | 
12 | TYK-nu (ovary, adherent) | 0.962 | > 16 | 0.634 | 0.301 | 0.837 | 5.88 | 0.668 | 3.04 | 0.958 | > 5 | 0.942 | > 10.2 | 0.955 | > 16 |  | 
13 | UACC-893 (breast, adherent) | 0.901 | > 16 | 0.98 | > 2 | 0.896 | > 8 | 0.965 | > 16 | 0.948 | > 5 | 0.938 | > 10.2 | 0.982 | > 16 |  | 
14 | VAL (B-cell lymphoma, suspension) | 0.827 | 9.82 | 0.537 | 0.158 | 0.978 | > 8 | 0.852 | 12.4 | 0.983 | > 5 | 0.678 | 2.01 | 0.9 | > 16 |  | 
15 | VCaP (prostate, adherent) | 0.893 | > 16 | 0.868 | 1.94 | 0.977 | > 8 | 0.725 | 4.47 | 0.981 | > 5 | 0.898 | > 10.2 | 0.958 | > 16 |  | 
16 | VM-CUB-1 (bladder, adherent) | 0.978 | > 16 |  |  | 0.967 | > 8 | 0.636 | 2.34 |  |  | 0.974 | > 10.2 | 0.847 | 11.2 | 0.665 | 1.77
17 | VMRC-MELG (melanoma, adherent) | 0.953 | > 16 | 0.947 | > 2 | 0.989 | > 8 | 0.987 | > 16 | 0.988 | > 5 | 0.939 | > 10.2 | 0.988 | > 16 |  | 
18 | VMRC-RCZ (kidney, adherent) | 0.88 | > 16 | 0.793 | 1.08 | 0.942 | > 8 | 0.611 | 2.13 | 0.961 | > 5 | 0.901 | > 10.2 | 0.802 | 9.42 |  | 
19 | WIL2-NS (lymphoid neoplasm, suspension) | 0.623 | 2.03 | 0.574 | 0.191 | 0.961 | > 8 | 0.339 | 0.393 | 0.979 | > 5 | 0.764 | 3.08 | 0.887 | 12.1 |  | 

From the supplement of paper PMC4967469
